The results in this text go back to paper PMC4752240.

Common to all, as to assay: two-hybrid; bait fused with the GAL4 DNA binding domain (pDEST32), prey fused with the GAL4 activation domain (pDEST22); mating of yeast strains AH109 and Y187; growth on -His (weak interaction) or -His -Ade (strong interaction); three replicates
Test [1] concerns the target T1, APC6, yeast two-hybrid fusion (UniProt B3DNN5).
T1 sequence: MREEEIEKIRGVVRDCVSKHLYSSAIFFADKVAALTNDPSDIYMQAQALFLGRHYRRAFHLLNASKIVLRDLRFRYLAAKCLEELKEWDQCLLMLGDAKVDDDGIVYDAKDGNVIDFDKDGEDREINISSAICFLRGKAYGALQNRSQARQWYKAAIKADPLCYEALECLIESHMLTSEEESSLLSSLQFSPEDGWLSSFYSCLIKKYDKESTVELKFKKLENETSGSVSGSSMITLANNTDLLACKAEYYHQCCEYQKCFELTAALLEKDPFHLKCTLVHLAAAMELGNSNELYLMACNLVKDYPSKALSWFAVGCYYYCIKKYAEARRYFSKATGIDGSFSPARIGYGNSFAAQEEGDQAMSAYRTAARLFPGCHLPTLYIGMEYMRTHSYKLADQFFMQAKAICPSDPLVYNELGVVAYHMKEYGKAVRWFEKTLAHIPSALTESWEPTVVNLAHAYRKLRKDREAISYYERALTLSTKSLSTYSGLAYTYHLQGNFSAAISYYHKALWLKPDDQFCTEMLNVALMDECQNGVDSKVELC

In test [2] the target is T2, CDC27b (HOBBIT/APC3b), yeast two-hybrid fusion (UniProt Q8LGU6).
T2 sequence: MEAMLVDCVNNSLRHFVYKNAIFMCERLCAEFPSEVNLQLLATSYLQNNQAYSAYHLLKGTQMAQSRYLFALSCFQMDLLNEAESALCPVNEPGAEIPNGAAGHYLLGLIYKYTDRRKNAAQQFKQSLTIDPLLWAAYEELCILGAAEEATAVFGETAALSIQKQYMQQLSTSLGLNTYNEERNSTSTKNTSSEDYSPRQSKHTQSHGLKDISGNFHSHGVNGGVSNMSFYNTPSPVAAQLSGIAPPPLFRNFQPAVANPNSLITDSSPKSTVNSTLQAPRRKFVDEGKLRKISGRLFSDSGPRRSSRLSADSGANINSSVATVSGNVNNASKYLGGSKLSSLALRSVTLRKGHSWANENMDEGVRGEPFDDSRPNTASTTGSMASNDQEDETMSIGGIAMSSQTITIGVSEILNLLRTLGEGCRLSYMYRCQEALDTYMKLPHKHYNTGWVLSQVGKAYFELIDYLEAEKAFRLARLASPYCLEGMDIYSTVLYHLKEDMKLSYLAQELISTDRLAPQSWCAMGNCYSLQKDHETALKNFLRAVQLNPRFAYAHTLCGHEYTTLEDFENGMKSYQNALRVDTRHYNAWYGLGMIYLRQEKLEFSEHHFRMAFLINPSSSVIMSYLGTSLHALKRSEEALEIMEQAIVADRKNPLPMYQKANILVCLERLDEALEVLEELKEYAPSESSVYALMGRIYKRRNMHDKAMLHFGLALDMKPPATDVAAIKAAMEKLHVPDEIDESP

The target of test [3] is T3, CCS52B, yeast two-hybrid fusion (UniProt Q8LPL5).
T3 sequence: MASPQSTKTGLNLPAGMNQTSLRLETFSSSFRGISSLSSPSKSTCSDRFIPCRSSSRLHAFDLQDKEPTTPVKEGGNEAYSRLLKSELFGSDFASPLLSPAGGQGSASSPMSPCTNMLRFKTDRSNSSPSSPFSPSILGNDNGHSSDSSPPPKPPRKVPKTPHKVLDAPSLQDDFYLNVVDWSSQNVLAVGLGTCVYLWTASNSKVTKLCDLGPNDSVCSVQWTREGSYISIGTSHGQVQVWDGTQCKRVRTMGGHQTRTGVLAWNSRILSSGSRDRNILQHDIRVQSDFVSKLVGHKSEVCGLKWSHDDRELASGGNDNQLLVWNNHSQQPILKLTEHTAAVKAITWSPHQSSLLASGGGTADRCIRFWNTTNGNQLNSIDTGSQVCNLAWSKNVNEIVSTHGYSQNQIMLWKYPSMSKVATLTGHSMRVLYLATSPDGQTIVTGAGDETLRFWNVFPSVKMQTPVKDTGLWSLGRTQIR

Test [4] has as its target T4, APC7, yeast two-hybrid fusion (UniProt Q8VY89).
T4 sequence: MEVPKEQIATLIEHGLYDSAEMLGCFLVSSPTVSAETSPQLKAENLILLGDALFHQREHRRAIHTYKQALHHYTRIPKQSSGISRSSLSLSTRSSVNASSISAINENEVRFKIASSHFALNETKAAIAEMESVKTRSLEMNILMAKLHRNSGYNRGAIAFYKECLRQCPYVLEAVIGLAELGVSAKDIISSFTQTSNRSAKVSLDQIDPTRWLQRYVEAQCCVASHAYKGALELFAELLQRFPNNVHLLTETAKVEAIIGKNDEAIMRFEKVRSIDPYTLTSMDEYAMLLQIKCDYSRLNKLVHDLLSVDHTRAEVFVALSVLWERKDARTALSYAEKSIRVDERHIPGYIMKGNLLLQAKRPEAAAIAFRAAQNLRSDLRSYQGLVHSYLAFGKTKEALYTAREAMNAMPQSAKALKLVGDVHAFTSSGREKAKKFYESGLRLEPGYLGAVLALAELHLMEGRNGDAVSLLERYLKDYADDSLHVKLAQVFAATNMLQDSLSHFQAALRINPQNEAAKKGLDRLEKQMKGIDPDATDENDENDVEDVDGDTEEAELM

No constants are given. Whether binding was seen depends on the method and setting. Some entries that bind do so weakly or less than the wild type. Where a sequence is shown, tags or fusion partners need not be part of it.

B1: TDM1 (THREE DIVISION MUTANT1), yeast two-hybrid fusion (protein, UniProt Q9SUC3 1-434)
chain: MCPCVERRAPPGVYYTPPPARTSDHVAAMPMTERRRPPYSCSSSSERRDPFHIVHKVPSGDSPYVRAKHAQLIDKDPNRAISLFWTAINAGDRVDSALKDMAVVMKQLGRSDEGIEAIKSFRYLCSFESQDSIDNLLLELYKKSGRIEEEAVLLEHKLQTLEQGMGFGGRVSRAKRVQGKHVIMTIEQEKARILGNLGWVHLQLHNYGIAEQHYRRALGLERDKNKLCNLAICLMRMSRIPEAKSLLDDVRDSPAESECGDEPFAKSYDRAVEMLAEIESKKPEADLSEKFYAGCSFVNRMKENIAPGTANKNYSDVSSSPASVRPNSAGLYTQPRRCRLFEEETRGAARKLLFGKPQPFGSEQMKILERGEEEPMKRKKLDQNMIQYLHEFVKDTADGPKSESKKSWADIAEEEEAEEEEEERLQGELKTAEM
For the molecule B1, the binding result in test [1] was “no binding”; in test [2], “binds”; in test [3] it was “no binding”; in test [4] it was “no binding”.
